Assay results published in patent publication US20240299393A1, “SMALL MOLECULE DISRUPTORS OF PROTEIN INTERACTIONS IN HISTONE DEACETYLASE COMPLEXES” (Dana-Farber Cancer Institute, Inc., priority 2021, published 2024).

Key:
[1] = biological target: Sin3 PAH2/Ume6 SID interaction (Saccharomyces cerevisiae, UniProt P22579); test: biochemical
[2] = system: yeast S. cerevisiae MaV208 transcriptome; test: RNA-seq in yeast MaV208; format: cell-based
Procedure: After yeast cells reached OD600 nm ˜0.5 in 0.8-1 mL of YPD, they were grown for two more hours at room temperature before being centrifuged to remove supernatant and freezing pellets on dry ice. For compound treatments, yeast cells at OD600 nm˜0.5 in YPD were incubated at room temperature for two hours with DMSO (1-1.6%) or the desired compound (from 25 mM stock in 100% DMSO) in an 2 mL-tube for a final volume of 0.8 mL in YPD, before being centrifuged, washed and frozen as described above. Yeast cells were then harvested for RNA extraction using a RiboPure RNA Purification Kit (Invitrogen, cat #AM1926), which involves mechanical cell wall disruption, phenol extraction of the lysate, and RNA purification using glass fiber, and filter-based RNA purification columns. RNA concentration was measured for individually purified RNA samples using a NanoDrop spectrophotometer. A total of 1 μg RNA from each sample was used for reverse transcription following a published procedure [Choi, S. G. et al 2012].
(§1) Following identical treatments as for RT-qPCR measurements, RNA was extracted as described above for yeast and neuroblastoma cells. Quality of the samples was checked by RT-qPCR before processing to RNA-Seq. RNA-Seq libraries for yeast (n=3 per condition) and neuroblastoma cells (n=3 per condition) were prepared according to the TruSeq stranded mRNA protocol (Illumina) and 101-bp single-end reads produced on an Illumina NovaSeq 6000 instrument. Reads were mapped to the human GRCh38 transcriptome (Ensembl cDNA release 97) or S. cerevisiae R64-1-1 (Ensembl cDNA release 97) and quantified using Salmon v0.8.2 [Patro et al 2017]. Read counts were summed to the gene level using tximport [Soneson et al 2015] and differential expression was assessed using DESeq2 [Love et al 2014]. Heatmaps were generated in R using the pheatmap package. The p-values of the overlaps were determined using two-sided Fisher's exact test and calculated using python function scipy.stats.fisher_exact.
All samples received the same amount of DMSO (0.7% of the total volume) for direct, side-by-side comparisons.

Rpd3L HDAC complex = test: Yeast URS-URA3 reporter assay, agar diffusion format; format: cell-based, S. cerevisiae
Procedure: To identify small molecule perturbants in an agar diffusion assay format, yeast cells were first seeded on the appropriate solid media (dried for at least three days at room temperature), at the indicated cell density per plate. After ˜30 min, compounds (dissolved in 100% DMSO) were then spotted (˜1 to 5 μL) at the indicated concentrations onto the seeded cells, to allow diffusion and formation of a circular concentration gradient around the original spot.
Using the agar diffusion assay format described above, the yeast Rpd3L HDAC complex was interrogated against 52,234 candidate small molecules (FIG. 32), tested in duplicate. JOY134 yeast cells were seeded at a density of ˜5×10^9 cells per plate on solid SC-LU medium, poured into Nunc OmniTray petri dishes. […] After five to seven days of incubation at 30° C., each duplicated plate was manually scored by comparing the rings of growth from candidate compounds to the DMSO controls. […]
The design of the assay is such that wild-type URS-URA3 yeast cells are plated onto solid medium lacking uracil. […] This primary positive selection for growth has obvious advantages over settings using negative readouts, such as reduction of reporter signal or cell viability. […]

[3] = system: transcriptome of neuroblastoma SK-N-BE(2)-C cells; test: RNA-seq in neuroblastoma cells; format: cell-based, human; settings: for number of genes perturbed (RNA-Seq): 1 μM TSA, 25 μM E6R, at least two fold vs DMSO
Procedure: SK-N-BE(2)-C cells were maintained in cell culture flasks supplemented with 10% Fetal bovine serum (FBS) and penicillin/streptomycin (PS) in Dulbecco's Modified Eagle's Medium (DMEM). The cells were maintained at a log phase in a humidified 5% CO2 incubator at 37° C. For testing the effect of the compounds on gene expression, approximately 0.1 million cells were seeded on each well of 24-well cell culture plates, with 1 mL 10% FBS+PS+DMEM. 24 h after seeding the cells, they were exposed to the compounds or DMSO control for 16 h in a humidified 5% CO2 incubator at 37° C., before harvesting them.
as §1

[4] = inhibitory concentration (Ki), from Example 6 IC50, assuming competitive inhibition
[5] = inhibitory concentrations (Ki), from Example 6A IC50, assumption of competitive inhibition

Sin3 PAH2/Ume6 SID interaction, sequence (P22579 402-473): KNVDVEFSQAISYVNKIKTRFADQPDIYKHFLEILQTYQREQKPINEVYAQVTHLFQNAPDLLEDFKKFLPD

SMILES	Ki [1, 4] [µM]	Ki [1, 5] [µM]	share of differentially regulated genes in sin3Δ similarly affected ([2]; 69/592) [%]	share of differentially regulated genes due to decreased Sin3 occupancy in promoter ([2]; RNA-Seq versus ChIP-Seq, 47/351) [%]	phenotype in URS-URA3 reporter assay (Rpd3L HDAC complex; wild-type URS-URA3 yeast, media lacking uracil / 5FOA)	IC50 [1] [µM]	genes also affected, out of 179 changed by rpd3Δ, sin3Δ and TSA ([2]; 50 μM) [genes]	share of the 179 genes changed by rpd3Δ, sin3Δ and TSA also affected ([2]; 50 μM) [%]	share of Sin3- and Rpd3-dependent genes with altered expression ([2]; RNA-seq) [%]	differentially expressed genes, down ([2]; WT+20 μM TSA or WT+50 μM E6R) [genes]	differentially expressed genes, up ([2]; WT+20 μM TSA or WT+50 μM E6R) [genes]	differentially expressed genes, total ([2]; WT+20 μM TSA or WT+50 μM E6R, fold change >2, p adjusted <0.05) [genes]	number of genes perturbed (RNA-Seq) [3]	fewer human genes perturbed compared to TSA ([3]; 25 μM E6R vs 1 μM TSA)	chemical-genetic interaction in URS-URA3 reporter assay (Rpd3L HDAC complex; strains lacking Pho23 or Ume1)
CC(NC(=O)c1c(O)n2ccccc2nc1=O)c1ccccc1 (racemic) [E6]	~30	29.1	~12	~13	single Ura^+/Foa^− phenotype	–	–	–	–	–	–	–	–	–	–
C[C@@H](NC(=O)c1c(O)n2ccccc2nc1=O)c1ccccc1 [E6R, 4-hydroxy-2-oxo-N—((R)-1-phenylethyl)-3,4-dihydro-2H-pyrido[, 2-a]pyrimidine-3-carboxamide]	~30	16.1	–	–	–	74.5 ± 7.2	43	~25	20	114	237	351	289 genes	approximately 20 fold	–
CC(/C=C/C(=O)NO)=C\[C@@H](C)C(=O)c1ccc(N(C)C)cc1 [TSA, trichostatin A]	–	–	–	–	–	–	–	–	–	–	–	–	6,103 genes	–	enhanced Ura^+/Foa^− phenotypes
